Data as given in PubChem BioAssay (NCI).
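Exposure lasted 48 hours, with cells grown in 96-well plates and compounds tested at five concentrations. GI50 marks 50% less growth. TGI denotes the concentration required for complete inhibition of growth.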 Active and inactive are the calls of the source. No stated cut-off is given here; in the data, active means GI50 below about 0.43 µM; inactive means the rest.

Test system: NCI-H322M lung
Experiment: NCI anticancer screen, dose series, 48 h

CC1=NCCc2cc3[nH]c4ccccc4c3cc21
TGI: 78.9 µM

O=C(/C=C/c1ccc(Cl)cc1)/C=C/c1cc2ccccc2[nH]c1=O
GI50: 13.9 µM | TGI: 48 µM

CCOc1nc(-c2ccccc2)cc2c(O)c(C(=O)N/N=C/c3ccc(O)cc3O)[nH]c(=O)c12
GI50: 0.934 µM | TGI: > 62.2 µM

Nc1nc2c(c3ncccc13)C(c1cccc(Br)c1)Cc1ncccc1-2 (stereo not drawn)
GI50: 3.46 µM | TGI: 36.1 µM

CC(C)(C)C(=O)N(C(=S)OCc1ccccn1)c1ccccc1
TGI: > 100 µM

COc1ccc2cc1Oc1ccc(cc1)CC1c3cc4c(cc3CCN1C)Oc1c(OC)cc3c(c1O4)C(C2)N(C)CC3 (stereo not drawn)
TGI: 15 µM

S=C(S)N1CCN(c2cccc(Cl)c2)CC1
TGI: > 100 µM

[C-]#[N+][C@@H]1C2[C@H](CC[C@@]1(C)O)C(=C)CC[C@@H]2[C@@]1(C)CC[C@H](Cl)C(C)(C)O1 (stereo partly drawn)
TGI: 30.2 µM

O=C(O)/C(=C/C(=O)c1ccc(Cl)cc1)NNc1ccc([N+](=O)[O-])cc1[N+](=O)[O-]
TGI: > 100 µM

CCc1cccc(C)c1NC(=O)C1=C(C)NC(C)=C(C(=O)Nc2c(C)cccc2CC)C1c1ccc([N+](=O)[O-])cc1
TGI: > 100 µM

ClCc1ccc(-c2ccc(Cn3cnc4nc(Cl)nc(Cl)c43)cc2)cc1
GI50: 26.1 µM | TGI: 44.9 µM

CC(=O)O[C@H]1CC2C(C3CCC(C(C)CCC(=O)O)[C@]31C)[C@H](OC(C)=O)C[C@@H]1CC3(CC[C@]21C)OOC1(CC[C@]2(C)C4C[C@H](OC(C)=O)[C@]5(C)C(C(C)CCC(=O)O)CCC5C4[C@H](OC(C)=O)C[C@@H]2C1)OO3 (stereo partly drawn)
TGI: 14.2 µM

O=c1c2cc([N+](=O)[O-])ccc2[nH]n1Cc1ccccn1
TGI: > 100 µM

Cc1cc(C)c(S(=O)(=O)N2CCN(S(=O)(=O)c3c(C)cc(C)cc3C)OCCCCCO2)c(C)c1
TGI: > 100 µM

O=C(CC1=Nc2nnc(CCCCCCCc3nnc4n3C(=O)C(CC(=O)c3ccccc3)=N4)n2C1=O)c1ccccc1
TGI: > 100 µM

O=C1/C(=C/c2cc3c(=O)c4ccccc4sc3s2)NC(=S)N1c1ccccc1
TGI: > 100 µM

CN(C)CCC=C1c2ccccc2C=Cc2ccccc21
TGI: 22.1 µM

[N-]=[N+]=Nc1ccccc1Oc1ccccc1
TGI: > 100 µM

CCOP(=O)(O)C(Nc1ccc(N=Nc2ccccc2)cc1)c1ccc(C(Nc2ccc(N=Nc3ccccc3)cc2)P(=O)(O)OCC)cc1 (stereo not drawn)
TGI: 61.4 µM

CCOC(=O)C(=O)Nc1ccc(C)c(C)c1
TGI: > 100 µM

CC(=O)[CH-]C(C)=O.CC(=O)[CH-]C(C)=O.CC(=O)[CH-]C(C)=O.[In+3]
GI50: > 100 µM | TGI: > 100 µM

CNC(=S)Nc1sc2c(c1C#N)CCCC2
TGI: > 75 µM

CC(=O)C1=C(c2ccccc2)N(C2OC(CO)C(O)C(O)C2O)C(S)=C(C#N)C1c1ccc(Cl)cc1 (stereo not drawn)
TGI: > 100 µM

COc1cc(C[C@@H](C)N)cc(OC)c1
TGI: > 100 µM

CC(C)c1cc(Cl)nc(Cl)n1
TGI: > 100 µM

C=CC1(CC)/C(=N\O)C(CC)(CC)C(=O)N1O (stereo not drawn)
TGI: > 100 µM

O=C1Nc2ccccc2C1=Nc1ccc(S(=O)(=O)Nc2nccs2)cc1
TGI: > 100 µM

CC(=O)OC1CC2(C)C(OC(C)=O)CC1C2(C)C (stereo not drawn)
TGI: > 100 µM

CN(C)N=Nc1ccccc1
TGI: > 100 µM

CSc1ncc2c(n1)-c1ccccc1OC2N1CCCCC1 (stereo not drawn)
TGI: > 100 µM

CN1CCc2c(c3ccccc3c3ccccc23)C1
GI50: 4.35 µM | TGI: 22.5 µM

C[C@@H]1C[N+]2([O-])[C@H]3C4=CCC[C@@H]4CC[C@H]3[C@@]3(C)OC(=O)CC[C@]34CC[C@H]1[C@@H]42 (stereo partly drawn)
GI50: > 60 µM | TGI: > 60 µM

Cc1cc(O)c(C=O)c2c1C(=O)Oc1c(CO)c(O)c3c(c1O2)C(O)OC3=O (stereo not drawn)
TGI: > 100 µM

COc1cc(C=O)cc(/C=N/c2ccccn2)c1O
TGI: > 100 µM

CC1CC2OC(=O)CC2C[C@@H]1O[Si](C)(C)C(C)(C)C (stereo partly drawn)
TGI: > 100 µM

CN1CCN(C(=S)N(C(=O)c2cccs2)C2CCCCC2)CC1
TGI: > 100 µM

COc1ccc(C(=O)c2cc(OC)c3c(c2)OCO3)cc1O
GI50: 2.11 µM | TGI: > 100 µM

CCc1ccc(CNCC(O)c2ccccc2)cc1 (stereo not drawn)
GI50: 22.8 µM | TGI: 92.7 µM

CCOC(=O)N1C/C(=C/c2ccc(F)cc2)C(=O)/C(=C/c2ccc(F)cc2)C1
GI50: 4.47 µM | TGI: 18.4 µM

O=C(c1cc(Cl)ccc1Cl)N1CCN(c2cccc(Cl)c2)CC1
TGI: 93.4 µM

O=C(O)c1cccc2cccc(-c3c4ccc(=O)cc-4oc4cc(O)ccc34)c12
TGI: > 100 µM

O=c1cc(-c2ccccc2)oc2cc(Oc3nnnn3-c3ccccc3)ccc12
TGI: > 100 µM

O=P(O)(NCCCl)NCCCl
GI50: > 100 µM | TGI: > 100 µM

O=S(=O)(Nc1ccccc1)c1ccc(-c2c3nc(c(-c4ccc(S(=O)(=O)Nc5ccccc5)cc4)c4ccc([nH]4)c(-c4ccc(S(=O)(=O)Nc5ccccc5)cc4)c4nc(c(-c5ccc(S(=O)(=O)Nc6ccccc6)cc5)c5ccc2[nH]5)C=C4)C=C3)cc1
TGI: > 31.6 µM

COc1cccc(/C=C2\CCC(CCN(C)C)(C3=CCCC3)C2=O)c1 (stereo not drawn)
TGI: 30.2 µM

O=C1C2C(C(=O)N1c1ccccc1)C1(Br)c3ccccc3C2(Br)C2C(=O)N(c3ccccc3)C(=O)C21 (stereo not drawn)
TGI: > 100 µM

O=C(Cn1ccnc1[N+](=O)[O-])c1ccccc1
TGI: > 100 µM

C=C1C(O)C23CCC4C(C(=O)O)(C(=O)O)CC(OC5OC(CO)C(O)C(OC(=O)CCc6ccccc6)C5NC(=O)CC(C)C)CC4(C)C2CCC1(O)C3 (stereo not drawn)
TGI: > 100 µM

Fc1cnc(NC2CC2)nc1-c1cnc2ccc(N3CCOCC3)cn12
GI50: 0.294 µM | TGI: 15.5 µM

O=C1CN2C(Cl)(Cl)C2(c2ccccc2)c2cc(Cl)ccc2N1CC1CC1 (stereo not drawn)
TGI: 49.7 µM

CN(C)c1ccc(C(=O)NCCCCCCC(=O)NO)cc1
TGI: 16.8 µM

Cc1cc2ncn(C3CCCO3)c2cc1C (stereo not drawn)
TGI: > 100 µM

CN1C2CCC1CN(CCOC(c1ccc(F)cc1)c1ccc(F)cc1)C2
TGI: > 100 µM

CN(Cc1cnc2c(n1)C(N)=NN(N)N2)c1ccc(C(=O)NC(CCP(=O)(O)O)C(=O)O)cc1 (stereo not drawn)
TGI: > 100 µM

CCCc1onc(CCC(=O)N(Cc2ccccc2)Cc2ccccc2)c1CC
TGI: > 100 µM

CCOC(=O)C1(O)C(=O)C2=C3C(=O)OC(C4OC(=O)c5c(c(O)c(O)c(O)c5C31)-c1c(cc(O)c(O)c1O)C(=O)OC1COC(=O)c3cc(O)c(O)c(O)c3-c3c(cc(O)c(O)c3O)C(=O)OC14)[C@@H]2O (stereo partly drawn)
TGI: > 100 µM

CC(C)(C)OC(=O)C1C(=O)NC(=O)CC1CC(OCc1ccccc1)C(COCc1ccccc1)OCc1ccccc1 (stereo not drawn)
TGI: > 100 µM

CC(C)=C1C(=O)C[C@@]2(C)C[C@H]3OC3(C)CC/C=C(/C)CCC12 (stereo partly drawn)
outcome: inactive

O=C(CC1C(=O)Nc2ccccc2S1=O)Nc1ccccc1 (stereo not drawn)
TGI: > 100 µM

Cn1c(O)c(C2=Nc3ccccc3C2=O)c2ccccc21
TGI: > 100 µM

Nc1ccc2c(c1)C(=O)N(OS(=O)(=O)c1ccccc1)C2=O
TGI: > 100 µM

CN(C)Cc1cc(N=Nc2ccccc2)ccc1O
TGI: > 100 µM

CC(CC[C@@H](C)C1CCC2[C@@H]3CC(O)C4CC(O)[C@@H](O)C[C@]4(C)C3CC[C@@]21C)C(C)(C)C (stereo partly drawn)
TGI: > 100 µM

OC1(c2ccccc2)c2ccccc2NC2=NCCN21 (stereo not drawn)
TGI: > 100 µM

C#C[C@]1(O)CC[C@H]2[C@@H]3CCC4=CC(=NCCOC(=O)c5cccc6c(=O)c7ccccc7[nH]c56)CC[C@@H]4[C@H]3CC[C@@]21C
TGI: > 100 µM

COc1cc(C(=O)NC(CCN)(c2ccccc2)c2ccccc2)cc(OC)c1OC
TGI: > 100 µM

CC(C)(C)C1CCC2c3c([nH]c4ccccc34)C3C(=O)N(c4cccc([N+](=O)[O-])c4)C(=O)C3C2C1 (stereo not drawn)
TGI: 83.6 µM

COc1ccc(C2[C@H]3C(=O)N(c4ccc(Cc5ccc(N6C(=O)[C@@H]7ON(c8ccccc8)C(c8ccc(OC)cc8)[C@@H]7C6=O)cc5)cc4)C(=O)[C@H]3ON2c2ccccc2)cc1 (stereo partly drawn)
TGI: > 100 µM

CC1CC(c2ccc([N+](=O)[O-])cc2)=Nc2ccccc2S1 (stereo not drawn)
TGI: > 100 µM

CN1C(=O)CC2CCCN2C1=O (stereo not drawn)
TGI: > 100 µM

CCCCc1ccc(Nc2cc(=O)n(C)c(=O)[nH]2)cc1
TGI: > 100 µM

COc1ccc(-c2cc(=O)c3c(OC)cccc3o2)c(OC)c1OC
TGI: > 100 µM

COc1ccc(S(=O)(=O)N/N=C\c2cc([N+](=O)[O-])cc(I)c2O)c(OC)c1OC
TGI: 99.5 µM

FC(F)(F)c1nnn[n-]1.[Au+].c1ccc([PH+](c2ccccc2)c2ccccc2)cc1
GI50: 16.1 µM | TGI: 29.8 µM

CN1CCN(CCCOc2ccc3nc(Nc4cc(Cl)cc(Cl)c4)ccc3c2)CC1
GI50: 1.95 µM | TGI: 3.85 µM

CCCC1C(CC)C(NC)C(C#N)(C#N)C1(C#N)C#N (stereo not drawn)
TGI: 42 µM

O=C1Nc2cc(Cl)ccc2/C1=C\c1c(-c2ccc(F)cc2)nc2ccccn12
GI50: 2.72 µM | TGI: 23.8 µM

Cc1cc(N(CCC#N)CCC#N)ccc1/C=C\C(=O)Nc1ccccc1
TGI: > 100 µM

COc1cc(/C=C2\C(=O)N(c3cc(Cl)ccc3Cl)C(c3ccccc3)S2(=O)=O)cc(OC)c1OC (stereo not drawn)
TGI: > 100 µM

COC1CC(OC2C(C)OC(OC3C(C)OC(OC4C(C)OC(O[C@H]5CC[C@@]6(C)C(=CC[C@]7(O)[C@@H]6C[C@@H](OC(=O)/C=C(\C)C(C)C)[C@@]6(C)[C@]7(O)CC[C@@]6(O)C(C)=O)C5)CC4OC)CC3OC)CC2OC)OC(C)C1O (stereo partly drawn)
TGI: > 12.5 µM

Cc1ccc([N+](=O)[O-])cc1S(=O)(=O)Nc1ccc(C2=NN(C(=O)c3ccccc3)C(c3ccccc3)C2)cc1 (stereo not drawn)
TGI: > 100 µM

O=[N+]([O-])c1ccccc1S(=O)(=O)c1cc(O)cc2c1NCCC2
TGI: 32.1 µM

COc1ccc(NC(=O)/C(Cc2nc3ccccc3[nH]c2=O)=N\O)c(OC)c1
TGI: > 100 µM

CCOC(=O)[C@H]1O[C@@H]1C(=O)N[C@@H](CC(C)C)C(=O)NCCc1ccc(O)cc1
GI50: > 100 µM | TGI: > 100 µM

CC(=O)NCCc1c(-c2[nH]c3ccccc3c2CCNC(C)=O)[nH]c2ccccc12
TGI: > 100 µM

COc1cccc2c1C(=O)c1c(O)c3c(c(O)c1C2=O)C[C@@](O)(C(C)O)C[C@@H]3OC1CC(N)C(O)C(C)O1 (stereo partly drawn)
GI50: 3.86 µM | TGI: > 59.6 µM

CN(C)CCCOc1ccc(OCCCN(C)C)c2c1C(=O)c1ccccc1C2=O
GI50: 0.852 µM | TGI: 6.6 µM

c1ccc2c(c1)nc1n2sc2nc3ccccc3n21
TGI: > 100 µM

COC(=O)c1cc(OC(C)=O)c2c(OC)ccc(OC)c2c1
TGI: > 100 µM

COc1cc(OC)cc(-n2c(N)c(C#N)c3ccc([N+](=O)[O-])cc3c2=O)c1
TGI: 66.6 µM

CCCCN1CCN(c2ccc3nc(-c4ccc5nc(-c6ccc(OC)c(OC)c6)[nH]c5c4)[nH]c3c2)CC1
GI50: 1.85 µM | TGI: 5.36 µM

Nc1ccc(C(c2ccccc2)(c2ccccc2)c2ccccc2)cc1
TGI: > 100 µM

N=C(N)N=Nc1ccc(NN=C(N)N)c2c1ncc1c2nc2sccn21
GI50: 27.6 µM | TGI: > 100 µM
